We go through 40 sequences from PMC12820563.

Some of the results follow. The list includes weakly bound sequences.

The assay deals with T1, MBP-FoxP3dN (UniProt Q99JB6).
T1 sequence: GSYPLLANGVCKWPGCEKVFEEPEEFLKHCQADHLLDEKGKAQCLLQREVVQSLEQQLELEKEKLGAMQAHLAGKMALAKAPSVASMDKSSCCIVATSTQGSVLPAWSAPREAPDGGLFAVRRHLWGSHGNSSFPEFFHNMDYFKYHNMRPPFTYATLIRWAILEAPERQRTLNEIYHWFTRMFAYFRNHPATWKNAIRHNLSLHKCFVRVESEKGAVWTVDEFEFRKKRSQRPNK
The experiment in a line: PD-seq (MBP pull-down with sequencing). The conditions noted are these: 20 mM Tris-HCl pH 7.5, 100 mM NaCl, 1.5 mM MgCl2, 0.4 uM protein, 0.1 uM dsDNA library, 30 min, room temperature, amylose pull-down; high values mean tight binding; double strand, one strand shown.
For the sequence “GATGATTGTTCTCCCAGCTGATGAATTAAGTAGTTCGAGTAAACAAATTTTCCTAATCTTTCTGTTCAAGCGCCATCTAC”, the binding signal (RPM ratio (pull-down/input)) was found to be 1.11.

With “GATGATTGTTCTCCCAGCTGATGAATTTTTACCATCGAGTAAACAAATTTTCCTAATCTTTCTGTTCAAGCGCCATCTAC”, the binding signal (RPM ratio (pull-down/input)) was found to be 0.314.

As for “GATGATTGTTCTCCCAGCTGATGAATTGGTAGGTTCGAGTAAACAAATTTTCCTAATCTTTCTGTTCAAGCGCCATCTAC”, the binding signal (RPM ratio (pull-down/input)) is 0.628.

“GATGATTGTTCTCCCAGCTGATGAATTGGTCAATTCGAGTAAACAAATTTTCCTAATCTTTCTGTTCAAGCGCCATCTAC”: the binding signal (RPM ratio (pull-down/input)) was determined as 0.401.

For “GATGATTGTTCTCCCAGCTGATGAATTGTAGGCATCGAGTAAACAAATTTTCCTAATCTTTCTGTTCAAGCGCCATCTAC”, the binding signal (RPM ratio (pull-down/input)) is 1.

On to “GATGATTGTTCTCCCAGCTGATGAATTTACGTAATCGAGTAAACAAATTTTCCTAATCTTTCTGTTCAAGCGCCATCTAC”, for which the binding signal (RPM ratio (pull-down/input)) was 1.26.

Regarding “GATGATTGTTCTCCCAGCTGATGAATTGGGCATATCGAGTAAACAAATTTTCCTAATCTTTCTGTTCAAGCGCCATCTAC”, the binding signal (RPM ratio (pull-down/input)) worked out at 2.06.

In the case of “GATGATTGTTCTCCCAGCTGATGAATTCCCCCGATCGAGTAAACAAATTTTCCTAATCTTTCTGTTCAAGCGCCATCTAC”, the binding signal (RPM ratio (pull-down/input)) amounted to 0.165.

With “GATGATTGTTCTCCCAGCTGATGAATTTAATCCATCGAGTAAACAAATTTTCCTAATCTTTCTGTTCAAGCGCCATCTAC”, the binding signal (RPM ratio (pull-down/input)) turned out to be 0.269.

As for “GATGATTGTTCTCCCAGCTGATGAATTGAAATGTTCGAGTAAACAAATTTTCCTAATCTTTCTGTTCAAGCGCCATCTAC”, the binding signal (RPM ratio (pull-down/input)) was 0.48.

Consider “GATGATTGTTCTCCCAGCTGATGAATTTATCTGATCGAGTAAACAAATTTTCCTAATCTTTCTGTTCAAGCGCCATCTAC”, for which the binding signal (RPM ratio (pull-down/input)) was found to be 0.374.

For “GATGATTGTTCTCCCAGCTGATGAATTGCATATATCGAGTAAACAAATTTTCCTAATCTTTCTGTTCAAGCGCCATCTAC”, the binding signal (RPM ratio (pull-down/input)) was 1.46.

On to “GATGATTGTTCTCCCAGCTGATGAATTCATTATTTCGAGTAAACAAATTTTCCTAATCTTTCTGTTCAAGCGCCATCTAC”, for which the binding signal (RPM ratio (pull-down/input)) came out at 1.66.

Regarding “GATGATTGTTCTCCCAGCTGATGAATTCGTCCGTTCGAGTAAACAAATTTTCCTAATCTTTCTGTTCAAGCGCCATCTAC”, the binding signal (RPM ratio (pull-down/input)) was determined as 0.459.

As for “GATGATTGTTCTCCCAGCTGATGAATTTGCAAGCTCGAGTAAACAAATTTTCCTAATCTTTCTGTTCAAGCGCCATCTAC”, the binding signal (RPM ratio (pull-down/input)) is 0.862.

“GATGATTGTTCTCCCAGCTGATGAATTTAGGCACTCGAGTAAACAAATTTTCCTAATCTTTCTGTTCAAGCGCCATCTAC”: the binding signal (RPM ratio (pull-down/input)) was determined as 0.691.

Regarding “GATGATTGTTCTCCCAGCTGATGAATTTGTTAAATCGAGTAAACAAATTTTCCTAATCTTTCTGTTCAAGCGCCATCTAC”, the binding signal (RPM ratio (pull-down/input)) came to 0.587.

On to “GATGATTGTTCTCCCAGCTGATGAATTGCCGGAGTCGAGTAAACAAATTTTCCTAATCTTTCTGTTCAAGCGCCATCTAC”, for which the binding signal (RPM ratio (pull-down/input)) came to 0.341.

For the sequence “GATGATTGTTCTCCCAGCTGATGAATTCACCACTTCGAGTAAACAAATTTTCCTAATCTTTCTGTTCAAGCGCCATCTAC”, the binding signal (RPM ratio (pull-down/input)) stood at 0.354.

Regarding “GATGATTGTTCTCCCAGCTGATGAATTAGCCCAATCGAGTAAACAAATTTTCCTAATCTTTCTGTTCAAGCGCCATCTAC”, the binding signal (RPM ratio (pull-down/input)) turned out to be 0.282.

As for “GATGATTGTTCTCCCAGCTGATGAATTACAGGCCTCGAGTAAACAAATTTTCCTAATCTTTCTGTTCAAGCGCCATCTAC”, the binding signal (RPM ratio (pull-down/input)) turned out to be 0.622.

For the sequence “GATGATTGTTCTCCCAGCTGATGAATTTACGCGCTCGAGTAAACAAATTTTCCTAATCTTTCTGTTCAAGCGCCATCTAC”, the binding signal (RPM ratio (pull-down/input)) was 0.58.

“GATGATTGTTCTCCCAGCTGATGAATTGTGGAGTTCGAGTAAACAAATTTTCCTAATCTTTCTGTTCAAGCGCCATCTAC”: the binding signal (RPM ratio (pull-down/input)) is 0.624.

“GATGATTGTTCTCCCAGCTGATGAATTACATTCTTCGAGTAAACAAATTTTCCTAATCTTTCTGTTCAAGCGCCATCTAC”: the binding signal (RPM ratio (pull-down/input)) was 0.483.

On to “GATGATTGTTCTCCCAGCTGATGAATTTAAATGATCGAGTAAACAAATTTTCCTAATCTTTCTGTTCAAGCGCCATCTAC”, for which the binding signal (RPM ratio (pull-down/input)) amounted to 0.382.

Take “GATGATTGTTCTCCCAGCTGATGAATTAGGTGTGTCGAGTAAACAAATTTTCCTAATCTTTCTGTTCAAGCGCCATCTAC”: the binding signal (RPM ratio (pull-down/input)) is 1.89.

Consider “GATGATTGTTCTCCCAGCTGATGAATTGGTTGGCTCGAGTAAACAAATTTTCCTAATCTTTCTGTTCAAGCGCCATCTAC”, for which the binding signal (RPM ratio (pull-down/input)) was determined as 1.78.

Consider “GATGATTGTTCTCCCAGCTGATGAATTGGGCGGTTCGAGTAAACAAATTTTCCTAATCTTTCTGTTCAAGCGCCATCTAC”, for which the binding signal (RPM ratio (pull-down/input)) came out at 0.556.

Take “GATGATTGTTCTCCCAGCTGATGAATTTGACAGCTCGAGTAAACAAATTTTCCTAATCTTTCTGTTCAAGCGCCATCTAC”: the binding signal (RPM ratio (pull-down/input)) came out at 0.405.

In the case of “GATGATTGTTCTCCCAGCTGATGAATTTATCATCTCGAGTAAACAAATTTTCCTAATCTTTCTGTTCAAGCGCCATCTAC”, the binding signal (RPM ratio (pull-down/input)) is 3.42.

For the sequence “GATGATTGTTCTCCCAGCTGATGAATTCCGATACTCGAGTAAACAAATTTTCCTAATCTTTCTGTTCAAGCGCCATCTAC”, the binding signal (RPM ratio (pull-down/input)) is 0.876.

Consider “GATGATTGTTCTCCCAGCTGATGAATTAAGCCTGTCGAGTAAACAAATTTTCCTAATCTTTCTGTTCAAGCGCCATCTAC”, for which the binding signal (RPM ratio (pull-down/input)) amounted to 4.24.

Regarding “GATGATTGTTCTCCCAGCTGATGAATTCTTTCCGTCGAGTAAACAAATTTTCCTAATCTTTCTGTTCAAGCGCCATCTAC”, the binding signal (RPM ratio (pull-down/input)) was found to be 0.202.

As for “GATGATTGTTCTCCCAGCTGATGAATTATTCGCCTCGAGTAAACAAATTTTCCTAATCTTTCTGTTCAAGCGCCATCTAC”, the binding signal (RPM ratio (pull-down/input)) amounted to 0.568.

As to “GATGATTGTTCTCCCAGCTGATGAATTAGAATACTCGAGTAAACAAATTTTCCTAATCTTTCTGTTCAAGCGCCATCTAC”, the binding signal (RPM ratio (pull-down/input)) was 0.561.

In the case of “GATGATTGTTCTCCCAGCTGATGAATTCTCTCTGTCGAGTAAACAAATTTTCCTAATCTTTCTGTTCAAGCGCCATCTAC”, the binding signal (RPM ratio (pull-down/input)) was found to be 0.215.

As for “GATGATTGTTCTCCCAGCTGATGAATTCAACACTTCGAGTAAACAAATTTTCCTAATCTTTCTGTTCAAGCGCCATCTAC”, the binding signal (RPM ratio (pull-down/input)) worked out at 0.469.

Take “GATGATTGTTCTCCCAGCTGATGAATTATCCATTTCGAGTAAACAAATTTTCCTAATCTTTCTGTTCAAGCGCCATCTAC”: the binding signal (RPM ratio (pull-down/input)) stood at 0.309.

For “GATGATTGTTCTCCCAGCTGATGAATTCGTCAAATCGAGTAAACAAATTTTCCTAATCTTTCTGTTCAAGCGCCATCTAC”, the binding signal (RPM ratio (pull-down/input)) came out at 0.211.

Turning to “GATGATTGTTCTCCCAGCTGATGAATTGTCACGTTCGAGTAAACAAATTTTCCTAATCTTTCTGTTCAAGCGCCATCTAC”, the binding signal (RPM ratio (pull-down/input)) came to 0.577.
